Where “and” joins values, the source holds several entries; their conditions need not be identical. Equal entries are not always repeated. Hit rate of the full screen: of about 340,000 compounds, about 12,000 (3.5%) were called active. Inconclusive means that the source gave no clear call. Such entries were picked first, then a sample of the others. Calls come from the whole dose curve; as a rule, active = well fitted inhibition curve with a large enough effect; inconclusive = small, poorly fitted or top-dose-only effect, or another doubt; inactive = no such curve, though single readings can be large or run the other way. A potency beside an inconclusive call is a rough fit, not a confirmed value.
Assay: qHTS Assay for Inhibitors of Hepatitis C Virus (HCV)
Settings: Huh7.5.1 HCVcc-Cre (HCVcc is cell-culture hepatitis C virus) infection, luciferase reporter, 44 h; activity change, negative = inhibition: at 41.8 µM (top of the series)
Method in brief: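 Luciferase read-out (15 sec integration) after a 15 min room-temperature substrate step quantifies HCVcc-Cre infection. Cells, 1,000 per well, had compound added 4 h post-plating, then virus at ~0.5 moi, and were cultured 44 h.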
% is set by controls: 0 for no effect and ±100 for the full control effect; potency is the fitted concentration of half-maximal effect; tags give direction and shape of the fitted curve.

Question: For `COc1ccc(S(=O)(=O)Nc2cc3c(C(C)=O)c(C)oc3c3ccccc23)cc1`, which Potency is on record?
Answer: active: 17.8 µM

Question: For `O=C(NCCCNC(=O)c1ccccc1F)c1ccco1`, which “activity change, negative = inhibition” value is on record?
Answer: inactive: 13%

Question: With `CC(C)=CCc1c(O)c(CC=C(C)C)c2occ(-c3ccc(O)cc3)c(=O)c2c1O` as the compound, how does the Potency read?
Answer: inconclusive: 3.16 µM [inhibitor, partial curve, poor fit]

Question: For `CCc1nn(C(C)C(=O)NCc2cccc(OC)c2)c(=O)c2cc3occc3n12` (stereo unspecified), which Potency is on record?
Answer: inconclusive: 25.1 µM [inhibitor, single point]

Question: For `CCOc1ccccc1C(=O)N[C@H](C(=O)Nc1cc(S(=O)(=O)N(C)C)ccc1OC)C(C)C`, which Potency is on record?
Answer: inconclusive: 10 µM [inhibitor, partial curve]

Question: Which Potency does the source give for `Cc1ccc(S(=O)(=O)N2CCOCC2)cc1C(=O)OCC(=O)N(Cc1ccccc1)C(C)C` here?
Answer: inconclusive: 12.6 µM [inhibitor, partial curve]

Question: With `CCCc1cc(=O)[nH]c(Nc2ccc(OC)c(Cl)c2)n1` as the compound, how does the Potency read?
Answer: inconclusive: 15.8 µM [inhibitor, single point]

Question: For `CCOc1ccccc1N(CC(=O)Nc1ccc2c(c1)OCO2)S(C)(=O)=O`, which “activity change, negative = inhibition” value is on record?
Answer: inactive: -14.2%

Question: For `O=C(NCC1CCCO1)c1cn(Cc2ccccc2)nc1-c1ccccc1` (stereo unspecified), which Potency is on record?
Answer: inconclusive: 31.6 µM [inhibitor, single point]

Question: For `C=CS(=O)(=O)N(Cc1ccc(Cl)c(Cl)c1)C[C@@H](O)CO`, which Potency is on record?
Answer: active: 14.1 µM

Question: For `O=C(Nc1ccc(F)cc1)C1COc2ccccc2O1` (stereo unspecified), which “activity change, negative = inhibition” value is on record?
Answer: inactive: 7.16%

Question: For `O=C1C(Cc2ccccc2)Nc2ncnc(N3CCN(c4ccccc4)CC3)c2N1Cc1ccccc1` (stereo unspecified), which Potency is on record?
Answer: inconclusive: 2.82 µM [inhibitor, full curve]

Question: Which Potency does the source give for `Cc1ccccc1Nc1c(-c2cccnc2)nc2cccc(C)n12` here?
Answer: inconclusive: 31.6 µM [inhibitor, single point]

Question: With `COCCNC(=O)c1ccc2c(c1)CCN2S(C)(=O)=O` as the compound, how does the “activity change, negative = inhibition” value read?
Answer: inactive: 13.9%

Question: Which “activity change, negative = inhibition” value does the source give for `CCN1C(=O)N(c2ccc(C(C)=O)cc2)S(=O)(=O)c2ccccc21` here?
Answer: inactive: 12.5%

Question: For `O=C(CN1CCN(Cc2ccc3c(c2)OCO3)CC1)N1CCc2[nH]c3ccc(F)cc3c2C1`, which Potency is on record?
Answer: inconclusive: 14.1 µM [inhibitor, single point] and inconclusive: 31.6 µM [inhibitor, single point]

Question: Which Potency does the source give for `COc1ccc2nc(N3CCCC3)c(C#N)cc2c1` here?
Answer: inconclusive: 15.8 µM [inhibitor, partial curve]

Question: For `Cc1ccc(S(=O)(=O)N2CCCCC2)cc1C(=O)Nc1ccc(N2CCOCC2)cc1`, which Potency is on record?
Answer: inconclusive: 11.2 µM [inhibitor, partial curve]

Question: Which Potency does the source give for `Cc1ccc(S(=O)(=O)N2CCN(C(=O)C3CCN(C(=O)c4ccc(F)cc4)CC3)CC2)c(C)c1` here?
Answer: active: 11.2 µM

Question: For `O=C(NNC(=O)C1CCC(C(=O)NNC(=O)c2cccs2)CC1)c1cccs1` (stereo unspecified), which “activity change, negative = inhibition” value is on record?
Answer: inactive: 22%

Question: For `CCN(CC)c1ccc(S(=O)(=O)N2CCCCC2)cc1NC(=O)CN1C(=O)NC2(CCCC2)C1=O`, which Potency is on record?
Answer: inconclusive: 31.6 µM [inhibitor, single point]

Question: Which Potency does the source give for `CCC1(C)Cc2c(sc3nc(NC)n(C)c(=O)c23)CO1` (stereo unspecified) here?
Answer: inconclusive: 10 µM [inhibitor, partial curve]

Question: Which Potency does the source give for `CCO/C=N/Nc1nc(C(F)(F)F)nc2c1cnn2Cc1ccccc1` here?
Answer: inconclusive: 31.6 µM [inhibitor, single point]

Question: With `S=C1NCCN1CC1CCN(CCC23CC4CC(CC(C4)C2)C3)CC1` as the compound, how does the Potency read?
Answer: inconclusive: 35.5 µM [inhibitor, single point]

Question: Which Potency does the source give for `CCCCCCSc1cc(-c2nc3cnccn3c2NCCCC)ccc1OC` here?
Answer: inconclusive: 12.6 µM [inhibitor, single point]

Question: With `Oc1ccc(C[C@H]2CNC(=S)N2CC2CCCN2C[C@H](Cc2ccc(O)cc2)N2C[C@H](Cc3ccc(O)cc3)N(CC3CCCCC3)C2=S)cc1` (stereo partly specified) as the compound, how does the Potency read?
Answer: inconclusive: 3.55 µM [inhibitor, full curve]

Question: Which “activity change, negative = inhibition” value does the source give for `C=C(C)C(=O)Nc1cccc(C2=NOC3(C2)C[C@@H](C(N)=O)N(C(=O)/C(C)=C/C)C3)c1` (stereo partly specified) here?
Answer: inactive: 16.1%

Question: For `Cc1cccc(NC(=O)CSc2nc3ccccc3nc2N2CCCC2)c1`, which Potency is on record?
Answer: inconclusive: 10 µM [inhibitor, partial curve]

Question: With `CC(=O)Nc1cccc(NC(=O)CCNC(=O)c2ccccc2)c1` as the compound, how does the Potency read?
Answer: active: 3.16 µM

Question: For `Cc1cccc(N2CC(C(=O)NCCC3=CCCCC3)CC2=O)c1C` (stereo unspecified), which Potency is on record?
Answer: inconclusive: 5.62 µM [inhibitor, full curve]

Question: With `Cn1c(SCC(=O)Nc2ncc(C(F)(F)F)cc2Cl)nnc1-c1ccc(Cl)cc1` as the compound, how does the “activity change, negative = inhibition” value read?
Answer: inactive: -6.43%

Question: Which Potency does the source give for `Cc1ccc2c(COC(=O)c3n[nH]c4ccccc34)cc(=O)oc2c1` here?
Answer: inconclusive: 10 µM [inhibitor, partial curve]

Question: For `COc1ccccc1Nc1cc(C)nc(Nc2ccccc2OC)n1`, which Potency is on record?
Answer: active: 2.51 µM

Question: For `C/C(=N\NC(=O)c1nn(C)c(C)c1Br)c1ccc(NC(=O)C2CCCC2)cc1`, which Potency is on record?
Answer: inconclusive: 15.8 µM [inhibitor, partial curve, poor fit]

Question: Which Potency does the source give for `Nc1cc(N)nc(SCc2cc(=O)oc3cc4c(cc23)CCC4)n1` here?
Answer: inconclusive: 11.2 µM [inhibitor, partial curve]

Question: With `CCOc1ccc(OCCCCn2cnc3ccccc3c2=O)cc1` as the compound, how does the Potency read?
Answer: inconclusive: 15.8 µM [inhibitor, single point]

Question: For `CCN(CC(=O)Nc1ccc(NC(C)=O)cc1)C(=O)CCCc1c[nH]c2ccccc12`, which Potency is on record?
Answer: inconclusive: 31.6 µM [inhibitor, single point]

Question: Which Potency does the source give for `COc1cccc(NC(=O)COc2ccc(C(=S)N3CCN(C)CC3)cc2OC)c1` here?
Answer: inconclusive: 31.6 µM [inhibitor, partial curve, poor fit]

Question: Which Potency does the source give for `CCn1c(C)c(C)c2cc(C(=O)N3CCN(c4cccc(C)c4C)CC3)ccc21` here?
Answer: inconclusive: 31.6 µM [inhibitor, single point]

Question: For `CC1(C)CC(=O)c2ccc(O)cc2O1`, which “activity change, negative = inhibition” value is on record?
Answer: inactive: -1.61%

Question: Which Potency does the source give for `CN(C)c1ccc(/C=C/C(=O)c2cc(Cl)ccc2O)cc1` here?
Answer: inconclusive: 31.6 µM [inhibitor, single point]

Question: With `COc1cccc(NC(=S)N(CCc2nc3cc(C)c(C)cc3[nH]2)Cc2cccnc2)c1` as the compound, how does the “activity change, negative = inhibition” value read?
Answer: inactive: -11.8%

Question: For `COc1cccc(-c2nn(C)c3sc(C(=O)N4CCN(c5ccccc5)CC4)cc23)c1`, which Potency is on record?
Answer: inconclusive: 31.6 µM [inhibitor, single point]

Question: Which Potency does the source give for `CCc1nc2ccc(C(=O)Nc3ccc(NC(C)=O)cc3)cc2nc1CC` here?
Answer: inconclusive: 2 µM [inhibitor, full curve]

Question: Which Potency does the source give for `CCOC(=O)Cc1csc(NC(=O)CSc2nnc(-n3nc(C)cc3C)c3ccccc23)n1` here?
Answer: inconclusive: 7.94 µM [inhibitor, partial curve]

Question: For `NNC(=O)c1cc(C2CC2)nc2ccc(Br)cc12`, which Potency is on record?
Answer: inconclusive: 31.6 µM [inhibitor, single point]

Question: For `CC(C)C(C(=O)NC1CCCC1)N(CC1CCCO1)C(=O)CNS(=O)(=O)c1ccccc1` (stereo unspecified), which “activity change, negative = inhibition” value is on record?
Answer: inactive: 2.95%

Question: For `C=CCc1cccc(CNc2nc3ccccc3n2CC)c1O`, which Potency is on record?
Answer: inconclusive: 11.2 µM [inhibitor, partial curve]

Question: With `Clc1cccc(Cl)c1CNc1ccc(N2CCCC2)cc1` as the compound, how does the Potency read?
Answer: inconclusive: 31.6 µM [inhibitor, single point]

Question: For `Nc1ccc2nc(SCC(=O)c3ccccc3)sc2c1`, which Potency is on record?
Answer: inconclusive: 11.2 µM [inhibitor, single point]

Question: With `CCC(C)N1CCN(C(=O)C2CCN(S(=O)(=O)c3c(C)noc3/C=C/c3ccco3)CC2)CC1` (stereo unspecified) as the compound, how does the Potency read?
Answer: inconclusive: 6.31 µM [inhibitor, partial curve]

Question: With `COc1ccc(NC(=O)c2ccc(Br)c(S(=O)(=O)N3CCOCC3)c2)cc1` as the compound, how does the Potency read?
Answer: inconclusive: 0.501 µM [inhibitor, full curve, poor fit]

Question: With `COc1cc(C(=O)Nc2ccc(NC(=O)c3ccccc3Cl)nc2)cc(OC)c1OC` as the compound, how does the Potency read?
Answer: inconclusive: 31.6 µM [inhibitor, single point]

Question: For `COc1cc(OC)cc(C(=O)N(Cc2nc(-c3cccc(C)c3)no2)C(C)C)c1`, which Potency is on record?
Answer: inconclusive: 28.2 µM [inhibitor, single point]

Question: With `CCN(CC)C(=S)SCC(=O)Nc1nc(=O)c2ccccc2s1` as the compound, how does the “activity change, negative = inhibition” value read?
Answer: inactive: 0.952%

Question: With `O=C(c1ccccc1)c1ccc(-n2cnnc2)c([N+](=O)[O-])c1` as the compound, how does the Potency read?
Answer: inconclusive: 3.55 µM [inhibitor, single point]

Question: Which Potency does the source give for `COc1cc(CN(C)Cc2cc(=O)oc3cc(C)c(Cl)cc23)ccc1OC(F)F` here?
Answer: active: 10 µM

Question: For `Cc1ccc2cc(CN(C(=O)c3cccs3)c3ccccc3)c(=O)[nH]c2c1`, which Potency is on record?
Answer: inconclusive: 22.4 µM [inhibitor, single point]

Question: For `COCCNc1nc(-c2ccccc2)nc2c1oc1ccccc12`, which Potency is on record?
Answer: inconclusive: 35.5 µM [inhibitor, partial curve, poor fit]

Question: Which Potency does the source give for `ClCc1cc2ccccc2nc1Cl` here?
Answer: inconclusive: 31.6 µM [inhibitor, single point]

Question: For `CCc1ccc(C2=Nn3c(nnc3-c3cccs3)SC2)cc1`, which Potency is on record?
Answer: inconclusive: 7.94 µM [inhibitor, partial curve]

Question: With `Cc1ccccc1S(=O)(=O)N1C[C@H]2CON(C)[C@H]2C[C@H]1c1cccc(-c2ccc(C#N)cc2)c1` as the compound, how does the Potency read?
Answer: inconclusive: 3.16 µM [inhibitor, partial curve]

Question: With `CNC1=C(N(C(C)=O)c2ccc(Br)cc2)C(=O)c2ccccc2C1=O` as the compound, how does the Potency read?
Answer: inconclusive: 8.91 µM [inhibitor, partial curve]

Question: Which “activity change, negative = inhibition” value does the source give for `CC(=O)Nc1ccc2oc(C)nc2c1` here?
Answer: inactive: 9.96%

Question: With `CC(=O)c1sc(N/N=C\c2c(O)ccc3ccccc23)nc1C` as the compound, how does the Potency read?
Answer: inconclusive: 11.2 µM [inhibitor, partial curve]

Question: For `CCOc1ccc(/C=N/NC(=O)COc2ccccc2-c2ccccc2)cc1`, which Potency is on record?
Answer: inconclusive: 35.5 µM [inhibitor, partial curve, poor fit]

From PubChem BioAssay AID651820 (National Center for Advancing Translational Sciences (NCATS), 2012)
